# Test results as given in patent US20250241301A1, “COMPOSITIONS AND METHODS FOR INHIBITING PATHOGEN GROWTH ON PLANTS AND IMPROVING CROP SAFETY” (priority 2024, published 2025).
# Where two headings read alike, the source gives them in different places.
# How the values were obtained:
# mandarin oranges = assay: T2H and T2H/PG vapor treatment of mandarin oranges, peel scarring; conditions: for Cumulative Peel Scarring (N = 5) / Post Treatment Mandarin Visual Fruit Quality: mandarin oranges
# potato tubers [1] = conditions: Trans-2-heptenal 0.15 ml/kg alone or with PG; PG only 0.075 mL/kg; vapor; N = 5
# potato tubers [2] = assay type: in vivo; conditions: Trans-2-pentenal 0.15 ml/kg alone or with PG; PG only 0.075 mL/kg; vapor; N = 5
# [3] = at 20° C.; cited from earlier work
# Yukon Gold Potatoes = assay: Dose response of aldehyde vapors for phytotoxicity on Yukon Gold potatoes
# potato tubers [4] = assay: T2H vapor treatment of stored potato tubers in Mason jars, skin lesion count (Table 4); assay type: in vivo; conditions: n = 5 tubers/variety
# potato tuber = assay: Vapor treatment of potatoes, lesions per tuber after 30 days in cold storage; assay type: in vivo; conditions: vapor @ 50 g/tonne (0.06 mL/kg)
# potato tubers [5] = assay: T2H / hexylene glycol vapor treatment of potato tubers, skin lesion count (Table 9); conditions: T2H […] alone or in mixture, HG alone 0.45 ml/kg, n = 5 tubers
# [6] = T2H 0.250 mL/kg alone or with 0.025 mL PG, PG only at 0.025 mL/kg, vapor
# [7] = T2H 0.5 mL/kg vapor, Norland Red
# [8] = T2H 0.5 mL/kg vapor, Ranger Russet
# [9] = T2H 0.5 mL/kg vapor, Yukon Gold
# [10] = T2H 1.0 mL/kg vapor, Norland Red
# [11] = T2H 1.0 mL/kg vapor, Ranger Russet
# [12] = T2H 1.0 mL/kg vapor, Yukon Gold
smiles,measurement,setting,value
"CC(O)CO (centres unmarked) [PG, propylene glycol]",Cumulative Peel Scarring (N = 5),mandarin oranges; [6],3
same,Post Treatment Mandarin Visual Fruit Quality,mandarin oranges; [6],Minor discoloration/spotting of peel.
same,48 h Post Treatment No. of Lesions,potato tubers [1],2
same,96 h Post Treatment No. of Lesions,potato tubers [1],5
same,Total No. of Lesions,potato tubers [1],7
same,48 h Post Treatment No. of Lesions,potato tubers [2],4
same,96 h Post Treatment No. of Lesions,potato tubers [2],4
same,Total No. of Lesions,potato tubers [2],8
same,vapor pressure,[3],10.6 pa
"CCCC/C=C/C=O [Trans-2-heptenal (T2HP), Trans-2-heptenal]",48 h Post Treatment No. of Lesions,potato tubers [1],15
same,96 h Post Treatment No. of Lesions,potato tubers [1],20
same,Total No. of Lesions,potato tubers [1],35
"CCCCCCC/C=C/C=O [Trans-2-decenal (T2D), Trans-2-Decenal]","phytotoxicity on potato, comparison of aldehydes",Yukon Gold Potatoes; 0.10-0.20 mL/kg vapor,generally more phytotoxic
same,No. of Lesions 96 h,Yukon Gold Potatoes; 0.10 mL/kg vapor,15
same,No. of Lesions (48 h),Yukon Gold Potatoes; 0.10 mL/kg vapor,10
same,Total No. of Lesions (3 tubers),Yukon Gold Potatoes; 0.10 mL/kg vapor,25
same,No. of Lesions 96 h,Yukon Gold Potatoes; 0.20 mL/kg vapor,36
same,No. of Lesions (48 h),Yukon Gold Potatoes; 0.20 mL/kg vapor,17
same,Total No. of Lesions (3 tubers),Yukon Gold Potatoes; 0.20 mL/kg vapor,53
same,No. of Lesions 96 h,Yukon Gold Potatoes; […] vapor,18
same,No. of Lesions (48 h),Yukon Gold Potatoes; […] vapor,9
same,Total No. of Lesions (3 tubers),Yukon Gold Potatoes; […] vapor,27
"CCC/C=C/C=O [T2H, trans-2-hexenal]",No. of Fresh Lesions (96 h),potato tubers [4]; [7],13
same,No. of Lesions (48 h),potato tubers [4]; [7],3.5
same,Total Lesions/tuber,potato tubers [4]; [7],16.5
same,No. of Fresh Lesions (96 h),potato tubers [4]; [8],6
same,No. of Lesions (48 h),potato tubers [4]; [8],4
same,Total Lesions/tuber,potato tubers [4]; [8],10
same,No. of Fresh Lesions (96 h),potato tubers [4]; [9],15
same,No. of Lesions (48 h),potato tubers [4]; [9],10
same,Total Lesions/tuber,potato tubers [4]; [9],25
same,No. of Fresh Lesions (96 h),potato tubers [4]; [10],38
same,No. of Lesions (48 h),potato tubers [4]; [10],16
same,Total Lesions/tuber,potato tubers [4]; [10],54
same,No. of Fresh Lesions (96 h),potato tubers [4]; [11],23
same,No. of Lesions (48 h),potato tubers [4]; [11],3
same,Total Lesions/tuber,potato tubers [4]; [11],26
same,No. of Fresh Lesions (96 h),potato tubers [4]; [12],10
same,No. of Lesions (48 h),potato tubers [4]; [12],6
same,Total Lesions/tuber,potato tubers [4]; [12],16
same,No. of Lesions/tuber after 30 days in cold storage,potato tuber; Dark Red Norland,2.15
same,No. of Lesions/tuber after 30 days in cold storage,potato tuber; Russet Burbank,1.03
same,No. of Lesions/tuber after 30 days in cold storage,potato tuber; Snowden,3.05
same,No. of Lesions/tuber after 30 days in cold storage,potato tuber; Yukon Gold,0.43
same,phytotoxicity to mandarin peels,mandarin oranges; 0.5 or 0.25 mL/kg applied as a vapor,phytotoxic to the peels
same,Cumulative Peel Scarring (N = 5),mandarin oranges; [6],13
same,Post Treatment Mandarin Visual Fruit Quality,mandarin oranges; [6],Reddish brown spotting - unacceptable
same,Cumulative Peel Scarring (N = 5),mandarin oranges; T2H 0.500 mL/kg vapor,320
same,Post Treatment Mandarin Visual Fruit Quality,mandarin oranges; T2H 0.500 mL/kg vapor,75%-90% fruit peel turned reddish
same,No. of Lesions 96 h,Yukon Gold Potatoes; […] vapor,8
same,No. of Lesions (48 h),Yukon Gold Potatoes; […] vapor,10
same,Total No. of Lesions (3 tubers),Yukon Gold Potatoes; […] vapor,18
same,Total No. of Lesions 48 h,potato tubers [5]; Cecile,23
same,Total No. of Lesions 96 h,potato tubers [5]; Cecile,21
same,Total No. of Lesions TOTAL,potato tubers [5]; Cecile,44
same,Total No. of Lesions 48 h,potato tubers [5]; Isabella,31
same,Total No. of Lesions 96 h,potato tubers [5]; Isabella,12
same,Total No. of Lesions TOTAL,potato tubers [5]; Isabella,43
same,vapor pressure,[3],13 hpa
